Laboratory results reported in PubChem BioAssay AID1345082 (National Center for Advancing Translational Sciences (NCATS), 2018).
About 4,000 (4.3%) of roughly 94,000 compounds were called active. This list was built around the results that the source calls inconclusive (neither active nor inactive); the mix of calls is not that of the screen. Calls follow the shape of the dose curve; as a rule, active = well fitted inhibition curve with a large enough effect; inconclusive = small, poorly fitted or top-dose-only effect; inactive = no such curve, though single readings can be large or run the other way. Potencies of inconclusive entries are doubtful fits and often do not repeat.

Experiment: Cytotoxic Profiling in NIH 3T3 Cell Line of Diverse Libraries Using Quantitative High-Throughput Screening; also: nearly all actives have a fitted effect of over 55% in size
Conditions: NIH 3T3 viability, CellTiter-Glo ATP luminescence, 48-72 h; activity change, negative = cytotoxicity: at 96.7 µM (top of the series) unless noted; series mostly up to 96.7 µM
Outline: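 Mouse fibroblast NIH 3T3 cells, 400 per well, received compound via pintool and were incubated for 48 or 72 hr prior to CellTiter-Glo ATP luminescence measurement.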
% is scaled to controls: 0 for no effect and ±100 for the full control effect; potency is read from the fitted curve at half-maximal effect; tags tell the direction and shape of the fitted curve.

SMILES	Potency	activity change, negative = cytotoxicity
COc1cccc(CNC(=O)c2cc(-c3cccnc3)nc3c2cnn3C)c1	inconclusive: 15.8 µM [inhibitor, full curve, poor fit]	–
COc1cccc(N2C(=O)NC(=NC3CCCC3)C23CCN(CC2CC2)C3)c1 (stereo not drawn)	inconclusive: 31.6 µM [inhibitor, full curve, poor fit]	–
CC1=C[C@@H](CNC(=O)CN(C)C)[C@H](C(C)C)C[C@H]1Cc1nnc(-c2ccccc2F)o1	active: 31.6 µM	–
Cn1cc(CCC(=O)Nc2ccc3c(c2)C(=O)N2CCC[C@H]2C(=O)N3)c2ccccc21	inconclusive: 50.1 µM [inhibitor, partial curve, poor fit]	–
CN(C)CCNC(=O)C[C@@H]1CCNC[C@@H]1Cc1cc(CN(C)Cc2ccccc2)on1	–	inactive: -3.4% [at 174 µM]
Cc1cc(F)cc(CN2CCc3nc(C(=O)NCC4CC4)oc3CC2)c1	inconclusive: 79.4 µM [inhibitor, partial curve]	–
OC1CC([C@H](NC2CSCCSC2)c2ccc3c(c2)CCO3)C1 (stereo partly drawn)	inconclusive: 89.1 µM [inhibitor, single point]	–
COc1cccc(-c2cc(C3CCN(C(=O)Nc4cc(C)cc(C)c4)CC3)[nH]n2)c1	inconclusive: 35.5 µM [inhibitor, partial curve, poor fit]	–
N#Cc1ccccc1CN1CCNc2nc(CN3CCN(CCO)CC3)n(Cc3ccccc3)c2C1=O	inconclusive: 7.08 µM [inhibitor, full curve, poor fit]	–
O=C(NCCNC(=O)c1cccc(-c2ccsc2)c1)c1ccc(Cl)cc1	–	inactive: 2.85%
COC1CN(c2cccc(F)c2)C12CCN(C(=O)CCC1CCCC1)CC2 (stereo not drawn)	inconclusive: 50.1 µM [inhibitor, partial curve, poor fit]	–
O=S(=O)(c1cc(F)cc(F)c1)N1CCC(C2CCNC2)CC1 (stereo not drawn)	inconclusive: 44.7 µM [inhibitor, partial curve, poor fit]	–
COc1ccc(N2CC3(COCC2=O)CN(c2ccc(C(F)(F)F)cn2)C3)cc1	–	inactive: -23.8% [at 138 µM]
CCCn1c(C)cnc1CC1CCN(C(=O)C2(c3ccc(OC)cc3)CC2)C1 (stereo not drawn)	–	inactive: -25.5%
Cc1noc(C)c1C1CCCN1C(=O)Cc1nc(-c2cccnc2)n[nH]1 (stereo not drawn)	–	inactive: -12.7%
Cc1ccc(OCCC2CCN(C(=O)Cn3cnc4c3c(=O)n(C)c(=O)n4C)C2)cc1 (stereo not drawn)	inconclusive: 44.7 µM [inhibitor, partial curve, poor fit]	–
Cc1cccc(OCC(=O)NCCn2ccn3nc(-c4ccc(C)cc4C)cc3c2=O)c1	inconclusive: 50.1 µM [inhibitor, partial curve, poor fit]	–
O=C(NC1CCCC1)N1CCN(C(=O)c2nc3cccnc3n(C3CCCC3)c2=O)CC1	inconclusive: 44.7 µM [inhibitor, partial curve, poor fit]	–
O=C1CN(Cc2ccc(-c3cccs3)cc2)CCN1c1ccc(Cl)nn1	inconclusive: 44.7 µM [inhibitor, partial curve, poor fit]	–

SMILES	Potency	activity change, negative = cytotoxicity
CN(C)C(=O)c1ccc(-c2cnc3[nH]cc(CC(=O)N4CCOCC4)c3c2)cc1	inconclusive: 44.7 µM [inhibitor, partial curve, poor fit]	–
Cc1cccc(C(=O)N2CCC(C3CCN(S(C)(=O)=O)CC3)C2)c1 (stereo not drawn)	–	inactive: -23.7%
CNc1nccc(N2CCC(CC(=O)NCc3cccc(OC)c3OC)CC2)n1	inconclusive: 44.7 µM [inhibitor, partial curve, poor fit]	–
CCc1nc2c(c(-c3ccc(OC)cc3)n1)CCN(C(=O)c1ccccc1OC)CC2	inconclusive: 44.7 µM [inhibitor, partial curve]	–
Cc1noc2c(NCCN3CCOCC3)cc(-c3cccc(C(F)(F)F)c3)nc12	inconclusive: 56.2 µM [inhibitor, partial curve, poor fit]	–
c1cncc(-c2ccnc(NCCCN3CCCc4ccccc43)n2)c1	active: 22.4 µM	–
Cc1ccc(NC(=O)CN2C(=O)NC3(CCCCC3)C2=O)cc1Cl	inconclusive: 22.4 µM [inhibitor, partial curve]	–
FC(F)(F)c1ccnc(N2CCOCC3(CN(Cc4ccccc4)C3)C2)n1	–	inactive: -24.4% [at 138 µM]
O=C(c1ccc2cc[nH]c2c1)N1CCC(n2cc(-c3nc(-c4ccccc4)no3)nn2)CC1	inconclusive: 31.6 µM [inhibitor, full curve]	–
Cc1oc2ccn(Cc3ccccc3F)c(=O)c2c1C(=O)NC1CCCCC1	inconclusive: 31.6 µM [inhibitor, partial curve]	–
Cc1ccc(Nc2ccnc(N3CCCC(C(=O)NCCCc4ccccc4)C3)n2)cc1 (stereo not drawn)	inconclusive: 22.4 µM [inhibitor, full curve, poor fit]	–
Cc1cccc(-c2nccc3c(=O)cc(N4CCN(C)CC4)oc23)c1	inconclusive: 39.8 µM [inhibitor, partial curve, poor fit]	–
Cc1c(C#N)c2ccccc2n1CC(=O)NC1CCOC2(CCOCC2)C1 (stereo not drawn)	–	inactive: -0.626%
CCc1cc(=O)n(CC(=O)Nc2ccc3c(c2)OCCO3)c(-c2cccc(F)c2)n1	inconclusive: 20 µM [inhibitor, full curve, poor fit]	–
N#Cc1ccc(C(=O)N2CC[C@@H](CC(=O)O)[C@@H](CC3=NCCc4ccccc43)C2)cc1	inconclusive: 89.1 µM [inhibitor, partial curve, poor fit]	–
COCCNc1cc(-c2cccc(C(F)(F)F)c2)nc2c(C)noc12	inconclusive: 56.2 µM [inhibitor, partial curve, poor fit]	–
O=C(N[C@H]1CCN2C(=O)c3cc(-c4ccccc4)ccc3NC(=O)[C@H]12)C1CCCC1	inconclusive: 50.1 µM [inhibitor, partial curve, poor fit]	–
COc1ccccc1CCC(=O)NC1CCN(c2cc(-c3ccccc3)[nH]n2)CC1	inconclusive: 50.1 µM [inhibitor, partial curve, poor fit]	–
CC(C)(C)c1nnc2ccc(C(=O)NCc3cccs3)cn12	inconclusive: 79.4 µM [inhibitor, partial curve]	–
